Among all 150,000 compounds or so, about 540 (0.36%) showed an effect of 50% or more. Some of the results follow.
system: Plasmodium falciparum; assay: Primary screen in NF54 nanoGlo assay, in single point, at 2uM, 72h; a lower Z score goes with more inhibition; type: functional, Erythrocyte; conditions: timepoint 72 hour

First: N#CCN(CC1CCC1)c1ccccc1
Second: CCCN(CCC)S(=O)(=O)NCCCN(C)c1ccccc1
The “% Inhibition” value of the first is lower: -7% for the first, -5% for the second.

Going from O=C(c1ccccc1)N1CCN(C(=O)N2CCOCC2)C1 to CN(CC1CC=CCC1)C(=O)C1CC=CCC1C(=O)N1CCOCC1 (stereo unspecified), the “% Inhibition” value falls from -1% to -4%.

Going from CN(C)CCc1nc(-c2ccc(-c3ccccc3)cc2)no1 to COc1cccc(CN[C@H](c2ccccc2)c2n[nH]c(C)n2)c1OC, the “% Inhibition” value falls from 9% to -3%.

Compared with CC(=O)C1C(c2ccc(C(C)C)cc2)c2c(noc2C)CC1(C)O (stereo unspecified), Cc1noc(CNC(=O)c2ccc3c(c2)OCO3)n1 is lower in “% Inhibition” value: 33% for the first, -10% for the second.

Going from C[C@@H](CCc1ccc(Br)cc1)NC(=O)Cn1cnnn1 to Cc1cc(C(=O)NCCn2nnc3ccccc3c2=O)[nH]n1, the “% Inhibition” value falls from -2% to -20%.

Compared with COC(=O)[C@H]1CN(c2nccc(C(F)(F)F)n2)C[C@@H](C)O1, CS(=O)(=O)N(c1cccnc1-n1nc(C(F)(F)F)cc1C(F)(F)F)S(C)(=O)=O is higher in “% Inhibition” value: -9% for the first, 0% for the second.

Going from CCNC(=O)[C@H]1CCN(C(=O)c2ccc(-c3cnc(N)nc3)cc2)C1 to Cc1nc(C(C)C)ncc1C(=O)N1CC[C@H](Nc2ncccn2)[C@@H](O)C1, the “% Inhibition” value rises from -11% to -6%.

First: O=C(Nc1cc(S(=O)(=O)N2CCCC2)ccc1Cl)c1cc(-c2ccc(-c3ccccc3)cc2)nc2ccccc12
Second: O=S(=O)(Nc1ccc(-c2cnc(C3CC3)o2)cc1)c1c(F)cccc1F
The “% Inhibition” value of the first is lower: -9% for the first, 19% for the second.

Compared with Cn1ccnc1CN(CCO)Cc1ccc(C2CCCC2)s1, C[C@@H]1CC(=O)N[C@H](C(=O)Nc2cc(C3CC3)ccn2)C1 is higher in “% Inhibition” value: -14% for the first, -7% for the second.

Going from Cc1cccc(C2(C(=O)N3CC[C@](C)(CN)C3)CCCCC2)c1 to CNc1nc(C)cc(C(=O)NCc2nnc3ccccn23)n1, the “% Inhibition” value rises from -26% to -5%.

Going from O=C(NC1CCc2c1ccc(Cl)c2Cl)C1COCCO1 (stereo unspecified) to Cc1nn(CCO)cc1-c1c(C)c([C@H]2CCOC(C)(C)C2)nc(N)c1C#N, the “% Inhibition” value falls from 4% to -12%.

For Cc1ccc2nc(COc3ccccc3C(=O)[C@H](C#N)c3nc(C)cs3)cn2c1, the “% Inhibition” value was -1%.

Going from N#CCN(CC1CCC1)c1ccccc1 to CCCN(CCC)S(=O)(=O)NCCCN(C)c1ccccc1, the Z score falls from 0.7 to 0.62.

Compared with O=C(c1ccccc1)N1CCN(C(=O)N2CCOCC2)C1, CN(CC1CC=CCC1)C(=O)C1CC=CCC1C(=O)N1CCOCC1 (stereo unspecified) is higher in Z score: 0.12 for the first, 0.48 for the second.

First: CN(C)CCc1nc(-c2ccc(-c3ccccc3)cc2)no1
Second: COc1cccc(CN[C@H](c2ccccc2)c2n[nH]c(C)n2)c1OC
The Z score of the first is lower: -1.76 for the first, 0.46 for the second.

Compared with CC(=O)C1C(c2ccc(C(C)C)cc2)c2c(noc2C)CC1(C)O (stereo unspecified), Cc1noc(CNC(=O)c2ccc3c(c2)OCO3)n1 is higher in Z score: -3.76 for the first, 1.47 for the second.

First: C[C@@H](CCc1ccc(Br)cc1)NC(=O)Cn1cnnn1
Second: Cc1cc(C(=O)NCCn2nnc3ccccc3c2=O)[nH]n1
The Z score of the first is lower: 0.29 for the first, 3.37 for the second.

Compared with COC(=O)[C@H]1CN(c2nccc(C(F)(F)F)n2)C[C@@H](C)O1, CS(=O)(=O)N(c1cccnc1-n1nc(C(F)(F)F)cc1C(F)(F)F)S(C)(=O)=O is lower in Z score: 0.96 for the first, 0.05 for the second.

Going from CCNC(=O)[C@H]1CCN(C(=O)c2ccc(-c3cnc(N)nc3)cc2)C1 to Cc1nc(C(C)C)ncc1C(=O)N1CC[C@H](Nc2ncccn2)[C@@H](O)C1, the Z score falls from 1.78 to 0.98.

Compared with O=C(Nc1cc(S(=O)(=O)N2CCCC2)ccc1Cl)c1cc(-c2ccc(-c3ccccc3)cc2)nc2ccccc12, O=S(=O)(Nc1ccc(-c2cnc(C3CC3)o2)cc1)c1c(F)cccc1F is lower in Z score: 1.69 for the first, -2.36 for the second.

First: Cn1ccnc1CN(CCO)Cc1ccc(C2CCCC2)s1
Second: C[C@@H]1CC(=O)N[C@H](C(=O)Nc2cc(C3CC3)ccn2)C1
The Z score of the first is higher: 1.89 for the first, 1.44 for the second.

Compared with Cc1cccc(C2(C(=O)N3CC[C@](C)(CN)C3)CCCCC2)c1, CNc1nc(C)cc(C(=O)NCc2nnc3ccccn23)n1 is lower in Z score: 3.03 for the first, 0.89 for the second.

First: O=C(NC1CCc2c1ccc(Cl)c2Cl)C1COCCO1 (stereo unspecified)
Second: Cc1nn(CCO)cc1-c1c(C)c([C@H]2CCOC(C)(C)C2)nc(N)c1C#N
The Z score of the first is lower: -0.48 for the first, 1.68 for the second.

Molecule Cc1ccc2nc(COc3ccccc3C(=O)[C@H](C#N)c3nc(C)cs3)cn2c1 has a Z score of 0.25.
